Assay results taken from PubChem BioAssay AID651820 (National Center for Advancing Translational Sciences (NCATS), 2012).
The campaign covered roughly 340,000 compounds. About 12,000 (3.5%) were called active. The inconclusive results got no clear call from the source; some entries with a clear call stand among them for comparison. Calls follow the shape of the dose curve; as a rule, active = well fitted inhibition curve with a large enough effect; inconclusive = small, poorly fitted or top-dose-only effect, or another doubt; inactive = no such curve, though single readings can be large or run the other way. No potency is given beside an inconclusive call; the fits are too rough.

Test: qHTS Assay for Inhibitors of Hepatitis C Virus (HCV)
Conditions: Huh7.5.1 HCVcc-Cre (HCVcc is cell-culture hepatitis C virus) infection, luciferase reporter, 44 h; series mostly up to 41.8 µM
In short: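 Infectious HCVcc-Cre (~0.5 moi) was added to cells just after compound, with cells seeded 4 h earlier at 1,000 per well. Luciferase activity after 44 h culture reported infection; substrate was incubated 15 min at room temperature before reading.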
Potency is read from the fitted curve at half-maximal effect; tags tell the direction and shape of the fitted curve.

Compound | Potency
Fc1ccc(NC(=S)N2CCN(C/C=C/c3ccccc3)CC2)c(F)c1 | inconclusive [inhibitor, single point]
O=C(Nc1ccc(S(=O)(=O)N2CCCCC2)cc1)C1CC(=O)N(Cc2ccccc2)C1 (stereo not given) | inactive
CN(c1ccccc1)S(=O)(=O)c1cccc(NC(=O)COc2cccc([N+](=O)[O-])c2)c1 | inconclusive [inhibitor, single point]
O=C(Nc1ccc2c(c1)OCO2)c1ccc(Br)s1 | inconclusive [inhibitor, partial curve]
O=C(NCC(c1ccco1)N1CCCC1)c1sc2ccccc2c1Cl (stereo not given) | inconclusive [inhibitor, single point]
C/C(=N\NC(=O)C1COc2ccccc2O1)c1cccs1 (stereo not given) | inactive
C[C@H](NC(=O)c1nc[nH]c1C(=O)N[C@@H](CCCCNC(=O)OC(C)(C)C)C(=O)OC(C)(C)C)C(=O)OC(C)(C)C | inconclusive [inhibitor, partial curve]
CCCCSc1nc(N)c(C#N)c(-c2cccs2)c1C#N | inconclusive [inhibitor, partial curve]
CCOC(=O)c1c(NC(=O)C(C)OC(=O)c2ccc(NC(=O)CC#N)cc2)sc2c1CCCC2 (stereo not given) | inconclusive [inhibitor, partial curve]
CCC(C)[C@H](N)c1nnc(SCc2cccc(F)c2)o1 (stereo not given in full) | inactive
O=C(O)CSC1CC(=O)N(c2ccc(Cl)c(Cl)c2)C1=O (stereo not given) | inactive
COc1ccccc1CNc1ncnc2sccc12 | inconclusive [inhibitor, full curve]
CCc1ccc(-c2cc3c(=O)n(CC(=O)NCCCN4CCN(C)CC4)ncn3n2)cc1 | inconclusive [inhibitor, full curve, poor fit]
O=C(NCCCN1CCOCC1)c1ccc2c(=O)n(Cc3cccc(Br)c3)c(=S)[nH]c2c1 | inconclusive [inhibitor, partial curve]
CC(=O)c1cccc(OCC(=O)Nc2cccc(C(=O)Nc3c(C)n(C)n(-c4ccccc4)c3=O)c2)c1 | inactive
O=C(Nc1cc(C(F)(F)F)ccc1-n1cncn1)c1ccc([N+](=O)[O-])o1 | inconclusive [inhibitor, partial curve]
Cc1ccc2nc(Br)c3c(c2c1)OC(CBr)C3 (stereo not given) | inactive
O=C1N=c2ccc([N+](=O)[O-])cc2=C1c1sc(=O)[nH]c1O | inactive
Cc1cc(C)c(C#N)c(N2CCN(c3ccccc3F)CC2)n1 | inactive
COc1cccc(CNC(=O)Cc2csc(NC(=O)Nc3ccccc3OC)n2)c1 | active: 5.62 µM
CCCc1cc(=O)oc2cc(OC3CCCCC3=O)ccc12 (stereo not given) | inconclusive [inhibitor, single point]
Cc1ccc(SCC(=O)Nc2ccccc2N2CCOCC2)cc1 | inconclusive [inhibitor, single point]
CC1CC(C)CN(S(=O)(=O)c2ccc(NC(=O)C3CSC4(C)CCC(=O)N34)cc2)C1 (stereo not given) | inconclusive [inhibitor, single point]
CCCCc1ccc(Nc2nc(N3CCOCC3)nc(N3CCOCC3)n2)cc1 | inconclusive [inhibitor, partial curve]

Compound | Potency
Cc1ccccc1-n1c(CSC(=N)N)nc2ccccc2c1=O | inconclusive [inhibitor, partial curve]
CC(C)[C@@H](CO)NC(=O)c1ccc2c3n(nc2c1)-c1ccc(Cl)cc1CO3 | inactive
Cc1cc(C)n2nc(-c3sccc3-n3cccc3)cc2n1 | inactive
N#Cc1cccc(C(c2nnnn2CCc2ccccc2)N2CCN(C3CCCCC3)CC2)c1 (stereo not given) | inconclusive [inhibitor, single point]
CC(C)Oc1ccc(C(CCNCc2ccc(O)cc2)c2ccccc2)cc1 (stereo not given) | inconclusive [inhibitor, single point]
Cn1c(O)c(N=NC(=O)CNC(=O)c2ccccc2)c2cc(Br)ccc21 | inconclusive [inhibitor, single point]
Cc1cc(C)cc(Cn2ncc(Cl)c(Cl)c2=O)c1 | inconclusive [inhibitor, partial curve]
CCOc1ccccc1N(CC(=O)N1CCOCC1)S(=O)(=O)c1ccccc1 | inconclusive [inhibitor, single point]
CCCCNC(=S)N1CCN(c2nc3ccccc3s2)CC1 | inconclusive [inhibitor, single point]
CCCC(=O)NC(NC(=S)Nc1ccc(N=Nc2ccccc2)cc1)C(Cl)(Cl)Cl (stereo not given) | active: 10 µM
COc1ccc(-c2cc(-c3ccccc3O)[nH]n2)cc1OC | inconclusive [inhibitor, single point]
COc1ccc(-c2cn3c(C)c(C(=O)N4CCN(c5ccccc5)CC4)sc3n2)cc1 | inactive
O=C(CCc1ccccc1)Nc1ccc(S(=O)(=O)NC2=NCCCCC2)cc1 | inactive
Cc1oc2ccc(O)cc2c1C(=O)c1ccc(F)cc1 | inconclusive [inhibitor, single point]
Fc1cccc(-c2cc3nc4c(c(N5CCC6(CC5)OCCO6)n3n2)CCCC4)c1 | active: 12.6 µM
CN(C)C(/C=C/Nc1ccccc1F)=C(C#N)C#N | inactive
Cc1ccc(-n2nnc3c(=O)n(Cc4ccccc4C)cnc32)cc1 | inactive
O=C(CN(c1ccc(Cl)cc1)S(=O)(=O)c1ccc(Cl)c([N+](=O)[O-])c1)NCCc1ccc(F)cc1 | inconclusive [inhibitor, full curve]
Cc1cc2nc(/C(C#N)=C/c3ccncc3)[nH]c2cc1C | inconclusive [inhibitor, single point]
Cc1cccc2c1OCC/C2=N\NC(=O)COc1ccccc1 | inactive
Cc1ccc(C(=O)CCS(=O)(=O)c2ccc(F)cc2)cc1 | inconclusive [inhibitor, single point]
Cc1nc(NC(=O)COC(=O)C(NC(=O)c2ccco2)C(C)C)c(Cl)cc1Cl (stereo not given) | inactive
Cc1cccc(Nc2nc(-c3ccc(O)cc3O)cs2)n1 | inconclusive [inhibitor, partial curve]
COC(=O)Nc1nc(-c2ccccc2)c(C(=O)c2ccccc2)s1 | inconclusive [inhibitor, partial curve]

Compound | Potency
O=S(=O)(c1ccc(SCc2ccc(Cl)cc2)nc1)N1CCCC1 | inconclusive [inhibitor, single point]
C=CCN(C(=O)CNC(=O)c1ccco1)C(C(=O)NC1CCCCC1)c1cccnc1 (stereo not given) | inactive
CCn1c(SCC(=O)c2ccc(Cl)cc2)nnc1-c1cccs1 | inconclusive [inhibitor, partial curve]
COc1ccc(NC(=O)c2ccc(-n3nc(C)c[n+]3[O-])cc2)cc1 | inconclusive [inhibitor, partial curve]
CCCS(=O)(=O)N1CCN(Cc2ccc3c(c2)c2ccccc2n3CC)CC1 | inconclusive [inhibitor, single point]
CCc1cc(-c2n[nH]c(C)c2-c2nc3ccccc3n2C)c(O)cc1O | inconclusive [inhibitor, single point]
Cc1cc(Cl)c(OCCCCNC(C)(C)C)c(Br)c1 | active: 10 µM
CCn1c(=O)n(CC(=O)N2CCN(c3ccccc3F)CC2)c(=O)c2ccccc21 | inconclusive [inhibitor, full curve, poor fit]
CN(C)c1ccc(-c2nc3n(n2)C(c2cccnc2)C2=C(CC(C)(C)CC2=O)N3)cc1 (stereo not given) | inconclusive [inhibitor, partial curve]
COc1ccccc1N1CCN(CCCCNC(=O)c2ccc3ccccc3c2)CC1 | inconclusive [inhibitor, partial curve]
Cc1onc(-c2c(F)cccc2Cl)c1C(=O)Nc1ccc(S(=O)(=O)N2CCOCC2)cc1 | inactive
CCOc1ccc(NCc2cccn2-c2nnc(N3CCC(C(=O)NCCCN4CCCCC4CC)CC3)s2)cc1 (stereo not given) | inconclusive [inhibitor, single point]
CC1(C)CC(=O)C=C(c2cc3ccccc3s2)C1 | inconclusive [inhibitor, single point]
COc1cc(/C=C2\SC(c3ccc(C)cc3)=NC2=O)cc(OC)c1O | inactive
Cc1ccccc1CN1CCN(CC(=O)NCCCN2CCN(c3ccc(F)cc3)CC2)C1=O | active: 10 µM
CCN(CC)CCCNC(=S)N1CCN(c2nc(-c3ccccc3)cs2)CC1 | active: 7.94 µM
Cc1cc(NC(=O)CCSc2nc(-c3ccco3)cc(C(F)(F)F)n2)no1 | inconclusive [inhibitor, partial curve]
CCOC(=O)c1c(-c2ccccc2)csc1NC(=O)CSc1nnc(C)s1 | inconclusive [inhibitor, partial curve]
O=C(/C=C/c1ccco1)Nc1ccc2nc3n(c(=O)c2c1)CCCC3 | inconclusive [inhibitor, partial curve]
COCCSc1nc2sc3c(c2c(=O)n1-c1ccccc1)CCN(C)C3 | inconclusive [inhibitor, single point]
COc1ccc(-c2cc(C(=O)Nc3c(C)nn(Cc4ccccc4Cl)c3C)no2)cc1 | inconclusive [inhibitor, partial curve]
CCn1c(C)cc(/C=C2\NC(=O)N(Cc3ccccc3)C2=O)c1C | inconclusive [inhibitor, partial curve]
